Article PMC4336329 (PLoS ONE, 2015)
The whole screen tested about 310,000 compounds, of which about 14,000 (4.5%) showed an effect of 50% or more. Effects have a minus sign here. Some of the results follow.

The compounds below were run against human ether-à-go-go-related gene (hERG) potassium channel (human, UniProt Q12809) (assay: primary screen, population patch clamp on CHO cells stably expressing hERG).
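Further: peak tail current of the secondary pulse compared with the same well before compound.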

Chain of human ether-à-go-go-related gene (hERG) potassium channel (Q12809 whole entry, looked up): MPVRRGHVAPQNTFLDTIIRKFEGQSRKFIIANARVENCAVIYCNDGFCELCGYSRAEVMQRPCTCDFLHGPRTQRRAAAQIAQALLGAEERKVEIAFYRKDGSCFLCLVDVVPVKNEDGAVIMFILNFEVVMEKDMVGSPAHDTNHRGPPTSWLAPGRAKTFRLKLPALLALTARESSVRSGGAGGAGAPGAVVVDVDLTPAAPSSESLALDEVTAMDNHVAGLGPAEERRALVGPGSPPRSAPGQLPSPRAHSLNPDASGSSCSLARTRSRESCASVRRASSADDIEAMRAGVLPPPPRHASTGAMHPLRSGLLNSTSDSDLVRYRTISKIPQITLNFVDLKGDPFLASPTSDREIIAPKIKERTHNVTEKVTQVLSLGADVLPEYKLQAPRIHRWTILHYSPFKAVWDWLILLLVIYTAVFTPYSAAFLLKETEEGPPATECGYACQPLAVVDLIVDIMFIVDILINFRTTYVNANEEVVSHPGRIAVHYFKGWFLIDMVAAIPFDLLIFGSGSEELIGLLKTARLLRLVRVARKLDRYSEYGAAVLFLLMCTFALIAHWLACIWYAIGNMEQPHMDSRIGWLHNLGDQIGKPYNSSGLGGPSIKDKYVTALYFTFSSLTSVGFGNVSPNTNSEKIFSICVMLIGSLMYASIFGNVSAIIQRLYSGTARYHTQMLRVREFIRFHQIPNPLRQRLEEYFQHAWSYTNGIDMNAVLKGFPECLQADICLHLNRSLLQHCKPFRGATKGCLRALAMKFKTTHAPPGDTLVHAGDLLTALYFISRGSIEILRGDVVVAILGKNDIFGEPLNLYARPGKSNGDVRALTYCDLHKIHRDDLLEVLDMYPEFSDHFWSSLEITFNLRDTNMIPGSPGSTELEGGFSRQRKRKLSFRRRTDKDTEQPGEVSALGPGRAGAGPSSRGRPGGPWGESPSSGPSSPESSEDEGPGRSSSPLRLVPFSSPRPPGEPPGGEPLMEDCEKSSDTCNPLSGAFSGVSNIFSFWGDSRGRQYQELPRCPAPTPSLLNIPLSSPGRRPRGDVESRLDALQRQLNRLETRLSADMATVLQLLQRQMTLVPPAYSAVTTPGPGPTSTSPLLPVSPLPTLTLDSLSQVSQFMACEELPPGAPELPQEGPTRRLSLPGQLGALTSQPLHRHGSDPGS

SMILES	hERG current change (%, negative = inhibition) at 10uM [%]
COc1ccc(C(F)(F)F)cc1N/C=C/c1nnnn1-c1ccc(C)cc1	9.33
Cc1ccc(C)c(NC(=O)COC(=O)CSc2ccccc2)c1	-2.49
CCN(CC(=O)NCc1cccs1)CC(=O)Nc1ccccc1C	-7.65
CCc1ccccc1N(CC)C(=O)c1cn(C)c(=O)c2cc(OC)c(OC)cc12	2.87
CCCCC(=O)Nc1cccc(NC(=O)CC)c1	3.94
COc1ccc(C(C)NC(=S)NC2CCCCC2)cc1OC (stereo not drawn)	7.6
O=C(c1ccc(-n2cnnn2)cc1)N1CCN(C(c2ccccc2)c2ccccc2)CC1	-64.7
O=C(NCc1n[nH]c(=S)n1-c1ccccc1)c1ccc(S(=O)(=O)N2CCOCC2)cc1	6.51
O=C1CC(C(=O)Nc2cccc3ccccc23)C2(CCCC2)O1 (stereo not drawn)	13.5
O=C(Nc1ccccc1)C1CCN(S(=O)(=O)c2cccs2)CC1	-16.4
O=C(O)C1CCN(S(=O)(=O)c2ccc(N3CCOCC3)c([N+](=O)[O-])c2)CC1	14.7
COc1cc(NC(=O)[C@@H](NC(=O)c2ccco2)C(C)C)c(OC)cc1NC(=O)c1ccccc1	-36
CCOc1ccc(NC(=O)C2CCCN(S(=O)(=O)c3ccc4[nH]c(=O)ccc4c3)C2)cc1 (stereo not drawn)	15.7
Cn1cccc1P(=O)(c1cccn1C)c1cccn1C	7.17
CC1(CCl)N([O-])C2=C(CCCC2)[N+]1=O (stereo not drawn)	12.3
CCOc1ccc(S(=O)(=O)NCCC(=O)OCN2C(=O)c3ccccc3C2=O)cc1	-28.4
COC(=O)C(NC(=O)C(C)Oc1ccccc1)C(C)C (stereo not drawn)	3.92
N#Cc1c(C(F)(F)F)cc(C2CC2)[nH]c1=O	19.7
Cc1ccc(F)cc1NC(=O)C1CCCN(c2ncccn2)C1 (stereo not drawn)	-1.96
COC(=O)C1=C(C)NC(C)=C(C(=O)OCC2CCCO2)C1c1cccc(Br)c1 (stereo not drawn)	-7.03
COc1ccc(S(=O)(=O)CC(O)CN2CCCC2=O)cc1 (stereo not drawn)	40.3
CCc1ccccc1S(=O)(=O)Cc1ccc(C(=O)NCC2CCCO2)o1 (stereo not drawn)	-23
COC(=O)c1cccc(NC(=S)Nc2cc(Cl)ccc2OC)c1	18.7
CSCCC(NC(=O)c1ccc(Cl)cc1)C(=O)NC(C)(C)C (stereo not drawn)	-12.2
Cc1ccc(N2C(=O)C3N=NN(CC(=O)N4N=C(c5cccc6ccccc56)CC4c4ccccc4)C3C2=O)cc1 (stereo not drawn)	7.36
O=C(Nc1cccc(C(F)(F)F)c1)Oc1ccc(Cl)c2cccnc12	9.96
Cc1ccc(-c2cc(C(=O)N3CCOCC3)c3cc(C)ccc3n2)cc1	-4.82

SMILES	hERG current change (%, negative = inhibition) at 10uM [%]
Cc1ccc(NC(=O)C(=O)NC(C)C2COc3ccccc3O2)cc1 (stereo not drawn)	15.8
C/C(CCN1CCCCc2nc(C)c(C)cc21)=N\O[C@H](C)c1cn([C@H](CO)Cc2ccccc2)nn1	-41.8
Cc1cc(C)c2nc(SC(C)C(=O)NCC(=O)Nc3ccc(F)c(F)c3F)cc(C)c2c1 (stereo not drawn)	12.1
Cc1cc(/C=C2\C(=O)NC(=O)N(c3ccccc3F)C2=O)c(C)n1-c1cc(C(=O)O)cc(C(=O)O)c1	23.5
CCc1ccc(Nc2n[n+](-c3ccccc3)c(-c3ccc(OC)c(Br)c3)s2)cc1.[Cl-]	-44
CC(C)CNS(=O)(=O)c1cc(C(=O)OC2CCOC2=O)c(Cl)cc1Cl (stereo not drawn)	0.965
Cc1ccc(-c2cccc(NC(=O)C3C(C(=O)O)[C@@H]4C=C[C@H]3C4)c2)o1 (stereo partly drawn)	-28
Cc1cc(C(=O)NC2CC(C)(C)Cc3c2cnn3-c2ccc(F)cc2)nn1C (stereo not drawn)	-14.8
CC(=O)Nc1ccc(Nc2cc(C)nc3c(-c4ccc(Cl)cc4)cnn23)cc1	11
CCCCNC(=O)C1CCN(S(=O)(=O)N2CCCCCC2)CC1	-20.5
CCOC(=O)CNS(=O)(=O)c1ccc(S(=O)(=O)NC2CC2)cc1	17
c1ccc(CSc2nnc3c4ccccc4c4ccccc4c3n2)cc1	16.7
COc1ccc(-n2cnc3cc(NC(=O)c4ccco4)ccc32)cc1	-36
COCCN(C(=O)COC(=O)c1ccco1)c1c(N)n(Cc2ccccc2)c(=O)[nH]c1=O	-12.5
COc1cc2c(cc1OC)C(c1cc3cc(OC)c(OC)cc3[nH]c1=O)N(C(=O)C1CC1)CC2 (stereo not drawn)	3.99
CC(=O)Nc1ccc(N/C=C/C(=O)c2ccc(Cl)cc2)cc1	16.6
OC(c1ccc(F)cc1)(c1ccc(F)cc1)[C@@H]1CCCN1	7.57
O=C(CCSCc1ccccc1F)NCc1cccs1	-7.78
Cc1ccc(-c2nc3cnccn3c2Nc2ccc3c(c2)OCO3)o1	-52.7
COCCn1c(-c2ccsc2)nc2c1c(=O)[nH]c(=O)n2CC(C)C	-20.1
N#Cc1c(CSCC(=O)O)cc(=O)n2c1[nH]c1ccccc12	11.9
NC(=O)CSc1nnc(-c2ccccc2)c(-c2ccccc2)n1	4.2
O=C(NCC1CC1)c1ccc2c(c1)S(=O)(=O)c1cc(Cl)ccc1C2=O	-38.9
C=CCNc1cc(C(F)(F)F)nc(-c2ccccn2)n1	-13.7
Cc1nc2ccc(Cl)cc2c(-c2ccccc2)c1C(=O)[O-].N[NH3+]	10.7
O=C(CCN1C(=O)/C(=C/c2ccco2)SC1=S)Nc1ccc(C(=O)O)c(O)c1	25.1
CC(=O)Nc1ccc(NC(=O)c2cccc(-c3cc4ccccc4oc3=O)c2)cc1	-5
